According to ChEMBL document CHEMBL4888484, “Replenishing the malaria drug discovery pipeline: Screening and hit evaluation of the MMV Hit Generation Library 1 (HGL1) against asexual blood stage Plasmodium falciparum ,using a nano luciferase reporter read-out” (2022):
The campaign covered roughly 150,000 compounds. About 540 (0.36%) showed an effect of 50% or more. The list shows a part of the results.

What follows are compounds tested on Plasmodium falciparum (assay: Primary screen in NF54 nanoGlo assay, in single point, at 2uM, 72h; a lower Z score goes with more inhibition). Conditions: timepoint 72 hour.
Format: functional, Erythrocyte

Structure (SMILES) | % Inhibition [%] | Z score
CC1CN(C(=O)OC(C)(C)C)C(C)CN1 (stereo not drawn) | -10 | 1.08
O=C(O)c1ccc(N2CCC(CCN3CCCCC3)CC2)c(NC(=O)c2ccc(Cl)cc2)c1 | 11 | -1.66
CC(Cc1ccco1)NC(=O)C(C)n1cncn1 (stereo not drawn) | -13 | 1.71
O=C(Cc1coc(-c2cccs2)n1)N1CCC[C@H]1C1CCC1 | -9 | 1.35
Cn1cc(-c2c(Cl)n(C)c(=O)n(C)c2=O)c(=O)n(C)c1=O | 1 | -0.13
CCn1c(C(=O)OC)c(NC(C)=O)c2cc(NC3CCCCC3)cnc21 | 7 | -0.94
CCN(C(=O)c1ccncc1)C1CCCCC1 | -12 | 1.34
C[C@H](NCC(=O)NC1CCCCCCC1)c1ccccc1 | -13 | 2.46
CCc1nnc(NC(=O)COCC(F)(F)F)s1 | 1 | -0.18
CCCCS(=O)(=O)N[C@@H](CC)Cn1ccnc1 | -18 | 1.78
Cc1ncc(C)c(NC(=O)c2ccoc2C2CC2)n1 | 5 | -0.57
O=C(c1ccc(F)cc1)c1ccccc1C(=O)N1CCc2[nH]c3ccc(F)cc3c2C1 | -3 | 0.67
Cc1ccc(C(=O)N(C)C2CCCCC2)c(C2CCN(C(=O)c3ccc(F)cc3F)CC2)n1 | 0 | 0.01
COc1ccc(NCc2ccc(N3N=C(c4ccccc4)C(C)(C)[C@H]3c3ccccc3)cc2)cc1 | -3 | 0.41
Cc1ccc(N2C[C@@H](C(=O)N3CCN(C)CC3)CC2=O)cc1 | -8 | 1.11
CCn1cncc1S(=O)(=O)N(C)c1cccc(C(C)C)c1 | -6 | 0.69
CC1CCC(CC(=O)N2CC[C@]3(CCN(C)C3)C2)CC1 (stereo partly drawn) | -2 | 0.27
O=S(=O)(Nc1ccc(O)c2cccnc12)N1CCCC1 | 46 | -3.88
CC(C)OCCC(=O)N(C)C[C@@H]1C[C@H](F)CN1c1ccncn1 | 1 | -0.09
CNc1ncccc1CN1C[C@H](OC(C)C)[C@@H](O)C1 | -5 | 0.52
O=c1cc([C@H]2C[C@H](Nc3nc4ccccc4o3)C2)nc(C2CC2)[nH]1 | -12 | 1.46
O=C(C1C2CCC(C2)N1C(=O)NC1CCCCC1)N1CCOCC1 (stereo not drawn) | -8 | 1.3
N[C@H]1CCC[C@@H](c2ncnn2CCc2ccccc2)C1 | -8 | 1.18
C/C1=C\CCC2C(/C=C(\C)CC1)OC(=O)C2CN1CCCCC1 (stereo not drawn) | 6 | -0.78
CN(C(=O)NCCc1cc(Cl)cc(Cl)c1)C1CCCCC1 | -12 | 1.73
Cn1nccc1C1CC(NC(=O)NC2CC3CC3C2)CCO1 (stereo not drawn) | 8 | -0.82
CC1CCN(C(=O)c2ccccc2N2CCC(NC(=O)c3ccco3)CC2)CC1 | -2 | 0.42

Structure (SMILES) | % Inhibition [%] | Z score
O=C(NCc1cccc(F)c1)N1CC2CC1CS2(=O)=O (stereo not drawn) | -5 | 1.04
O=C(Cc1c[nH]c2ccccc12)N1CCN(C(=O)NC2CCCC2)CC1 | -29 | 3.38
CC(C)c1ocnc1C(=O)NS(=O)(=O)CC1CCOCC1 | -3 | 0.38
Cc1nn(C)cc1C1=NO[C@H]2C(=O)N(c3ccc(Cl)cc3)C(=O)[C@@H]12 | -5 | 0.7
COc1cccc(CNC(=O)CCNC(=O)Cn2ccc3ccccc3c2=O)c1 | -4 | 0.52
Cc1nc2nc(CN3CCC(CNC(=O)[C@H]4CCCO4)CC3)cc(O)n2n1 | -22 | 2.76
CN(C)c1ccc(C(=O)N[C@H]2CO[C@H]3[C@@H]2OC[C@@H]3n2nnnc2Oc2ccc3c(c2)OCO3)cc1 | -11 | 1.35
CO[C@H]1C[C@@H](Cn2nnnc2N2CCC[C@H]2c2ccsc2)C1 | -3 | 0.42
Cc1cc(C(=O)N(CCC(=O)NCCc2ccccc2)CC(C)C)c(C)o1 | -13 | 1.85
O=C1C(CC(=O)N2CCCC[C@H]2c2cccnc2)N=C(O)N1CCc1ccccc1 (stereo partly drawn) | -4 | 0.53
c1ccc(Cc2noc(CN3CCOC4CCCCC43)n2)cc1 (stereo not drawn) | -6 | 0.81
Cc1noc(CCCN2C(=O)c3ccccc3C2=O)n1 | -6 | 0.75
Cc1ccc(N(C)C(=O)c2c3c(nn2C)CCS(=O)(=O)C3)c(C)c1 | -11 | 1.72
COC(=O)c1sc(NC(=O)c2cc(-c3ccc(C)c(F)c3)on2)nc1C | -10 | 1.89
CN(C)c1ccccc1CNS(=O)(=O)CCC1CCOCC1 | -10 | 0.82
O=c1[nH]n(C2CCOCC2)c2c1[C@@H](c1cccc(OC(F)F)c1)CC(O)=N2 | 35 | -3.95
COCCNC(N)=NCc1cccc(C(C)C)c1 | -6 | 0.81
Cc1ccc(N(C)C(C)C)c(C(=O)O)c1 | 9 | -1.8
COc1cccc([C@H]2CC(=O)Nc3ccsc32)c1OCc1cccc(F)c1 | 9 | -1.15
CCC(CC)N(CCNC(=O)C1CC2C=CC1C2)C(=O)C1CC2C=CC1C2 (stereo not drawn) | 2 | -0.31
CCOc1ccc([C@@H]2CC(c3ccc(C)cc3)=NN2C(=O)CN2CCN(Cc3ccccc3)CC2)cc1 | 28 | -3.59
CCCN(Cc1cnn(C)c1)S(=O)(=O)Cc1cccc(OC)c1 | -8 | 1.07
COc1ccccc1CNC(=O)c1cc(C)nc2c(-c3ccc(C)cc3)cccc12 | 12 | -1.38
COCCn1ccc(-c2cccc(-c3nc(C)cnc3C)c2)n1 | 9 | -1.62
CCc1nc2c(c(NCc3ccc(OC)c(F)c3F)n1)CCNCC2 | -6 | 1.04
CCCn1nnc(NC(=O)C(C)(C)C)n1 | -15 | 1.89
Cc1cc(C(=O)COc2cccc(Cl)c2Cl)c(C)n1Cc1ccc2c(c1)OCO2 | -20 | 2.03
